Laboratory results reported in PubChem BioAssay (NCATS).
The shares of active, inactive and inconclusive entries below differ from those in the screen. For some of these results: Where the call is inconclusive, the potency comes from a doubtful curve fit. Calls of active or inactive are those of the source. Unless noted, calls come from the whole dose curve; as a rule, active = well fitted curve in the direction sought with a large enough effect; inconclusive = small, poorly fitted or top-dose-only effect, or another doubt; inactive = no such curve, though single readings can be large; an effect the other way counts as inactive or inconclusive.

Legend:
[1] = qHTS of pediatric cancer cell lines to identify multiple opportunities for drug repurposing: Primary screen for BT-37 cells (AID 1347094); note: potency is the fitted concentration of half-maximal effect
Outline: (§1)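 Plated cells (500-1,000 per well, growth media) were allowed to settle for 5 hours, treated with compound dilutions for 48 hours, then lysed with CellTiter-Glo for 15 min at room temperature before luminescence reading.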

[2] = qHTS of pediatric cancer cell lines to identify multiple opportunities for drug repurposing: Primary screen for NB-EBc1 cells (AID 1347095); note: potency is the fitted concentration of half-maximal effect
Outline: as §1

[3] = qHTS of pediatric cancer cell lines to identify multiple opportunities for drug repurposing: Primary screen for NB1643 cells (AID 1347099); note: potency is the fitted concentration of half-maximal effect; nearly all actives have a fitted effect of over 50% in size
Outline: as §1

[4] = qHTS of pediatric cancer cell lines to identify multiple opportunities for drug repurposing: Primary screen for BT-12 cells (AID 1347101); note: nearly all actives have a fitted effect of over 25% in size; note: potency is the fitted concentration of half-maximal effect
Outline: (§2)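 Cells (500-1,000/well) rested 5 h, then received compounds for 48 h; metabolically active cells were measured by CellTiter-Glo luminescence. Final concentrations spanned up to 46 µM (MIPE, 11-point) or 0.59 nM-46 µM (NPC, 8-point) in primary screens, 11-point in follow-ups.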

[5] = qHTS of pediatric cancer cell lines to identify multiple opportunities for drug repurposing: Primary screen for OHS-50 cells (AID 1347103); note: potency is the fitted concentration of half-maximal effect; nearly all actives have a fitted effect of over 40% in size
Outline: as §2

[6] = Quantitative High-Throughput drug screen in 47 multiple myeloma cell lines against the NCATS MIPE library collection: Karpas417_ECACC cell viability assay (AID 1918961); details: Karpas417 myeloma viability, CellTiter-Glo ATP luminescence, 48 h; viability (% of DMSO): at 45.8 µM (top of the series); note: potency is the fitted concentration of half-maximal effect
Outline: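 We plated 500 myeloma cells per well, pinned in MIPE 4.0 compounds, and incubated for 48 hours at 37C. ATP was then quantified with CellTiter-Glo, with DMSO and media-only wells defining 100% and 0%.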

[7] = Quantitative High-Throughput drug screen in 47 multiple myeloma cell lines against the NCATS MIPE library collection: KMS20_JCRB cell viability assay (AID 1918973); details: CellTiter-Glo ATP, 48 h; viability (% of DMSO): at 45.8 µM (top of the series); note: potency is the fitted concentration of half-maximal effect; nearly all actives have a fitted effect of over 45% in size
Outline: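 qHTS of the MIPE 4.0 collection: 500 myeloma cells/well, 48 h drug exposure at 37C in 5% CO2, then CellTiter-Glo for 5 min at room temperature before luminescence reading.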

[8] = qHTS for identification of novel therapeutic agents for treatment of microphthalmiaassociated transcription factor (MiT) renal cell carcinoma (RCC) (AID 1963991; calls by dose curve; note: potency is the fitted concentration of half-maximal effect); details: TFE3-RCC UOK109 viability, CellTiter-Glo, 48 h; active = Z-AUC below -0.8 in all three lines
Outline: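 Three TFE3-fusion RCC cell lines (UOK109, UOK124, UOK145), 500 cells/well, were exposed to the 1912-compound MIPE 4.0 library for 48 hours at 37 C. Viability was read by CellTiter-Glo luminescence, normalised to DMSO (100%) and empty wells (0%), with 11-concentration curve fits.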

MKL-2 = assay: qHTS assay to identify novel small-molecules to repurpose for Merkel cell carcinoma treatment (AID 1296009); details: MCC and control cell lines, CellTiter-Glo viability, 72 h; activity change, negative = cytotoxicity: at 46 µM (top of the series); note: nearly all actives have a fitted effect of over 60% in size; note: potency is the fitted concentration of half-maximal effect
Outline: (§3)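 After compound transfer in DMSO, plates were kept 72 hr at 37 degree celsius. Luminescent ATP signal from CellTiter-Glo served as viability measure, normalized against DMSO and no-cell controls.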

[9] = qHTS of pediatric cancer cell lines to identify multiple opportunities for drug repurposing: Primary screen for DAOY cells (AID 1347090); details: DAOY medulloblastoma viability, CellTiter-Glo luminescence, 48 h; activity change, negative = cytotoxic: at 46 µM (top of the series); note: nearly all actives have a fitted effect of over 55% in size; note: potency is the fitted concentration of half-maximal effect
Outline: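 Cell viability, CellTiter-Glo luminescence; 500-1,000 cells/well, 8- or 11-point titration, 48 h compound exposure at 37 degrees C, 5% CO2. Controls: DMSO neutral, bortezomib 2.3 µM final as positive.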

[10] = Primary qHTS for small molecule stabilizers of the endoplasmic reticulum resident proteome: Secreted ER Calcium Modulated Protein (SERCaMP) assay (AID 1508630); details: SH-SY5Y GLuc-SERCaMP (Gaussia luciferase released on ER calcium loss) secretion, thapsigargin, luminescence; activity change, negative = inhibition: at 38.4 µM (top of the series) unless noted; note: potency is the fitted concentration of half-maximal effect
Outline: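 GLuc-SERCaMP-expressing SH-SY5Y cells, pretreated 16 h with compound, are challenged with thapsigargin to empty ER calcium stores; after 4 h, coelenterazine is added directly to the medium and luminescence is imaged.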

MCC-26 = assay: qHTS assay to identify novel small-molecules to repurpose for Merkel cell carcinoma treatment (AID 1296009); details: MCC and control cell lines, CellTiter-Glo viability, 72 h; activity change, negative = cytotoxicity: at 46 µM (top of the series); note: nearly all actives have a fitted effect of over 60% in size; note: potency is the fitted concentration of half-maximal effect
Outline: as §3

[11] = target: Cytochrome P450 2C9 (Homo sapiens) (UniProt P11712); assay: Cytochrome P450 family 2 subfamily C member 9 (CYP2C9) small molecule antagonists: luciferase biochemical (cell-free) qHTS assay (AID 1645842; active = well fitted curve in the direction sought with a large enough effect in the repeat runs; inconclusive = weak or mixed curves; inactive = no such curve, though single readings can be large; an effect the other way counts as inactive or inconclusive; note: nearly all actives have a fitted effect of over 55% in size)
Sequence of UniProt P11712 (P11712 whole entry, looked up): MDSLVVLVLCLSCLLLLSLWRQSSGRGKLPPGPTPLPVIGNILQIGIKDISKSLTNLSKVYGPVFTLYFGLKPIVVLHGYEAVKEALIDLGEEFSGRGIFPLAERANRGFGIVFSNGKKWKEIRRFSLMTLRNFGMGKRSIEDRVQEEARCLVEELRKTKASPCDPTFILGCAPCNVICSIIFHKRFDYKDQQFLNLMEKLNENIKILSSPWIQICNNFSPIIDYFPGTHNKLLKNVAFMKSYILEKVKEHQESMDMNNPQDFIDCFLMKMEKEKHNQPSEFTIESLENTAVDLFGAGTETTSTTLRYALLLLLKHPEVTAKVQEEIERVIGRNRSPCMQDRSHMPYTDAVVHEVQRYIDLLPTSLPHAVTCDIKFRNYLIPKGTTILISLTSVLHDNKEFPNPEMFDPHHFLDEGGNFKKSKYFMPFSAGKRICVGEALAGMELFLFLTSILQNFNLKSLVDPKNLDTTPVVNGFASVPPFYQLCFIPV
Outline: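 Luminescence, after 20 min with luciferin detection reagent, reflected CYP2C9 turnover during a 1 h NADPH-driven reaction at 37C. Enzyme-substrate mix contained 0.4% bovine serum albumin and was preincubated with compound 10 min at room temperature.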

[12] = NS1 protein of Zika virus - qHTS assay to identify small molecule inhibitors in human HEK 293 cells (AID 1347053); note: potency is the fitted concentration of half-maximal effect; nearly all actives have a fitted effect of over 55% in size
Outline: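 HEK 293 cells, seeded 20 h at 37 C, were pretreated with compound 1 h, then infected with ZIKV MR766 (MOI = 0.5) for 24 h. NS1 was read by TR-FRET with two anti-NS1 antibodies, normalized to uninfected and infected wells.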

[13] = qHTS of pediatric cancer cell lines to identify multiple opportunities for drug repurposing: Primary screen for SK-N-SH cells (AID 1347098); note: potency is the fitted concentration of half-maximal effect; nearly all actives have a fitted effect of over 65% in size
Outline: as §2

[14] = qHTS to identify inhibitors of the type 1 interferon - major histocompatibility complex class I in skeletal muscle: primary screen against the NCATS Mechanism Interrogation Plate v5.0 (MIPE) Libary (AID 1347411); details: iHSKM cells + IFN-b, HiBiT-tagged MHC-I luminescence, 24 h; activity change, negative = inhibition: at 45.8 µM (top of the series); note: potency is the fitted concentration of half-maximal effect; nearly all actives have a fitted effect of over 65% in size
Outline: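 Cells were genome-edited human myoblasts carrying a HiBit tag on endogenous HLA-B. They were treated with IFN-beta (4.0 ng/ml) and titrated compounds (top 46 uM) for 24 hrs before lytic HiBiT detection.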

[15] = qHTS assay to identify inhibitors of the type 1 interferon - major histocompatibility complex class I in skeletal muscle: Counter screen cell viability and HiBit confirmation (AID 1347412); details: iHSKM muscle cells + IFN-b, HiBiT or CellTiter-Glo, 24 h; note: potency is the fitted concentration of half-maximal effect; nearly all actives have a fitted effect of over 60% in size
Outline: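 Luminescence read-out: Nano-Glo HiBiT lytic signal from C-terminally HiBiT-tagged HLA-B in CRISPR-edited human myoblasts, plus CellTiter Glo ATP as viability counter screen. IFN-beta 4.0 ng/ml; 24 hrs treatment at 37 C, 5% CO2.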

Measured: Potency
Tags give direction and shape of the fitted curve.

COC(=O)[C@@H]1[C@H]2C[C@@H]3c4[nH]c5ccccc5c4CCN3C[C@@H]2CC[C@@H]1O
inconclusive: [1] 6.85 µM [cytotoxic, partial curve, poor fit] | [3] 14.8 µM [cytotoxic, partial curve] | [5] 15.3 µM [cytotoxic, partial curve] | [6] 1.32 µM [cytotoxic, partial curve, poor fit] | [7] 0.0083 µM [cytotoxic, full curve, poor fit] | [8] 20.9 µM [falling, partial curve] | MKL-2 = 2.09 µM [inhibitor, full curve]
inactive: [2] | [4]

COc1cc(C(=O)N2CCOCC2)cc(OC)c1OC
inactive: [9] | [1] | MCC-26
inconclusive: [10] 31.6 µM [inhibitor, partial curve, poor fit]

COc1ccc(C(=O)NCc2cc(C(C)C)no2)cc1OC1CCN(C)CC1
inactive: [11]

Clc1ccc(C(c2ccc(Cl)cc2)n2cc[n+](CC(OCc3ccc(Cl)cc3Cl)c3ccc(Cl)cc3Cl)c2)cc1 (stereo not drawn)
inconclusive: [8] 9.35 µM [falling, full curve] | [15]; HiBiT 44.3 µM [inhibitor, single point] | [15]; Viability 44.3 µM [cytotoxic, single point]
active: [12] 11.8 µM | [9] 23.5 µM | [1] 21.7 µM | [2] 23.5 µM | [13] 24.1 µM | [3] 23.5 µM | [4] 21.7 µM | [5] 17.2 µM | [14] 16.5 µM | [6] 8.33 µM | [7] 8.33 µM
